# Assay results as given in PubChem BioAssay AID624296 (National Center for Advancing Translational Sciences (NCATS), 2012).
# Hit rate of the full screen: of about 350,000 compounds, about 9,900 (2.8%) were called active. The inconclusive results got no clear call from the source; some entries with a clear call stand among them for comparison. Calls follow the shape of the dose curve; as a rule, active = well fitted activation curve with a large enough effect; inconclusive = small, poorly fitted or top-dose-only effect; inactive = no such curve, though single readings can be large or run the other way. No potency is given beside an inconclusive call; the fits are too rough.
# Test: A quantitative high throughput screen for small molecules that induce DNA re-replication in MCF 10a normal breast cells. Also: nearly all actives have a fitted effect of over 50% in size.
# Conditions: MCF 10A DNA re-replication, Hoechst nuclear intensity, 48 h; series mostly up to 46.1 µM
# Potency is read from the fitted curve at half-maximal effect; tags tell the direction and shape of the fitted curve.
row,Structure (SMILES),Potency
1,CC(Nc1nc(N2CCCCC2)nc2ccccc12)c1ccccc1 (stereo not drawn),"inconclusive [activator, single point]"
2,COC(=O)C1(C)NC(c2ccc(F)cc2)C2C(=O)N(c3ccccc3)C(=O)C21 (stereo not drawn),"inconclusive [activator, single point]"
3,CN1C(=O)/C(=C\c2cc(N=Nc3ccccc3)ccc2O)SC1=S,active: 2.91 µM
4,S=C(NCCCN1CCN(CCCNC(=S)NC2CCCCC2)CC1)NC1CCCCC1,"inconclusive [activator, single point]"
5,CCCCn1cnc2c([nH]c3cc(OC)ccc32)c1=O,inactive
6,COc1ccc(-c2ccc3oc(-c4ccc(OC)cc4)c(C#CCO)c3c2)cc1,"inconclusive [activator, single point]"
7,CCN1C(=O)CS/C1=C(\C#N)S(=O)(=O)c1ccccc1,"inconclusive [activator, partial curve, poor fit]"
8,COc1ccc(-c2ccc(-c3cc(=O)oc4cc(OC)c(OC)c(OC)c34)cc2)cc1OC,"inconclusive [activator, full curve, poor fit]"
9,COc1cc(C2c3cc4c(cc3C(O[C@@H]3OC5COC(c6cccs6)OC5C(O)C3O)C3COC(=O)C23)OCO4)cc(OC)c1O (stereo partly drawn),"inconclusive [activator, partial curve, poor fit]"
10,Cc1ccc(/C=N/NC(=O)c2cc(-c3ccncc3)nc3ccccc23)o1,"inconclusive [activator, partial curve, poor fit]"
11,O=C(CCNC(=O)c1ccc([N+](=O)[O-])cc1)Nc1ccccc1N1CCOCC1,"inconclusive [activator, single point]"
12,CCc1ccc(NC(=O)Cn2cnc3sc(C)c(S(=O)(=O)N4CCOCC4)c3c2=O)cc1,"inconclusive [activator, single point]"
13,CCN(CC)C(=O)CSc1nc2cc3c(cc2c(=O)n1CCCC(=O)NCc1ccc(OC)cc1)OCO3,inactive
14,COc1ccc(OC)c(NC(=O)Cc2c(C(=O)O)n(C)c3ccccc23)c1,inactive
15,O=S(=O)(Cc1cc(Cl)nc(-c2ccccc2)n1)c1ccccc1,active: 20.6 µM
16,Oc1ccccc1C1CC(c2cccs2)=NC(c2cccc(Br)c2)N1 (stereo not drawn),"inconclusive [activator, single point]"
17,CCn1cc(-c2cc(C(=O)O)c3ccccc3n2)c(C)n1,inactive
18,CN=C1S/C(=C\c2ccc(O)c(OC)c2)C(=O)N1C,"inconclusive [activator, partial curve, poor fit]"
19,O=C(O)CCS(=O)(=O)c1nc(-c2cccs2)cc(C(F)(F)F)n1,"inconclusive [activator, single point]"
20,O=C(COn1nnc2ccccc21)NCC1CCCCC1,"inconclusive [activator, partial curve]"
21,NC(=O)[C@H]1CC2(CC(c3cccc(NC(=O)c4ccccc4)c3)=NO2)CN1C(=O)[C@H]1CCC(=O)N1 (stereo partly drawn),"inconclusive [activator, partial curve]"

row,Structure (SMILES),Potency
1,COc1ccccc1/C=C(/CC(=O)NCc1ccc2c(c1)OCO2)c1nc2ccccc2s1,"inconclusive [activator, partial curve, poor fit]"
2,c1ccc2c(c1)nc(Nc1ccc3c(c1)OCO3)c1nnnn12,"inconclusive [activator, partial curve, poor fit]"
3,CCOC(=O)NC(NC(=O)OCC)C(=O)c1ccccc1,inactive
4,c1cc2c3c(cccc3c1)C(N1CCCCC1)=N2,inactive
5,C/C(=N\NC(=O)c1ccc(NS(=O)(=O)c2cccs2)cc1)c1ccccn1,"inconclusive [activator, single point]"
6,CC(C)OCCCNC(=O)CN1CCN(Cc2ccccc2Cl)C1=O,"inconclusive [activator, single point]"
7,CC/C(=N\NC(=S)Nc1cc(C)ccc1C)c1ccc(OC(F)F)cc1,"inconclusive [activator, single point]"
8,COc1cc2c(cc1OC)CN(c1nc(CN3CCOCC3)nc3sc4c(c13)CCCC4)CC2,active: 18.4 µM
9,OCCN1CCN(c2nc(-c3ccccc3)c3cc(Br)ccc3n2)CC1,active: 18.4 µM
10,Cc1cc(C)nc(/N=c2/ssnc2Cl)c1,"inconclusive [activator, partial curve, poor fit]"
11,CC(=O)c1ccc(N2CCN(C(=S)Nc3ccc(Cl)c(Cl)c3)CC2)cc1,"inconclusive [activator, full curve, poor fit]"
12,N#CC1=C(N)N(c2ccccc2Sc2ccccc2)C(=O)C1,"inconclusive [activator, partial curve, poor fit]"
13,Cc1ccc2nc(-c3ccc(NC(=O)CCS(=O)(=O)c4ccccc4)cc3)sc2c1,inactive
14,CCO[C@@H]1OC(C(=O)N2CCN(Cc3ccccc3)CC2)=C[C@H](C)[C@H]1CCCO,inactive
15,O=C(NC1CCCCC1)N1CCC(c2nc(-c3ccc(S(=O)(=O)N4CCCC4)cc3)no2)CC1,"inconclusive [activator, single point]"
16,CCC(=O)Nc1nonc1-c1nc2ccccc2n1CCC(C)C,"inconclusive [activator, single point]"
17,CCCN1C2CCCC1CC(NC(=O)c1ccccc1OC)C2 (stereo not drawn),inactive
18,CC(=O)c1cccc(Nc2nc(-c3ccccc3)nc3ccccc23)c1,"inconclusive [activator, full curve]"
19,O=C(O)c1ccc2c3c(ncnc13)-c1ccccc1C2=O,active: 2.31 µM
20,C[C@H](NC(=O)c1nc[nH]c1C(=O)N1CCNCC1)C(=O)OCc1ccccc1,inactive
21,CC(=O)Nc1cccc(NC(=O)C(=O)Nc2ccc3c(c2)N(C(=O)C2CC2)CCC3)c1,"inconclusive [activator, partial curve, poor fit]"

row,Structure (SMILES),Potency
1,COc1cc(NC(=O)C/C(C)=N/NC(=O)c2cccc(O)c2)c(OC)cc1Cl,"inconclusive [activator, single point]"
2,O=C(CCCn1c(=O)c2sccc2n(CC(=O)NCc2ccco2)c1=O)NCc1ccco1,inactive
3,COc1cccc(N(CC(=O)N2CCN(C)CC2)S(=O)(=O)c2ccc(C)cc2)c1,"inconclusive [activator, single point]"
4,COC(=O)C1=C(Nc2ccc(C)cc2)C=C(C)C(C(=O)OC)C1c1cccc(OC)c1 (stereo not drawn),"inconclusive [activator, full curve, poor fit]"
5,CC(C)[C@H](NC(=O)C1CCN(S(=O)(=O)c2ccccc2)CC1)C(=O)NCc1ccncc1,inactive
6,CCc1noc(C)c1C(=O)N1CCSC1=Nc1cccc(Cl)c1C,"inconclusive [activator, partial curve, poor fit]"
7,Cc1ccc(C(=O)OCC(=O)c2c[nH]c3ccccc23)cc1S(=O)(=O)N1CCCCC1,"inconclusive [activator, partial curve, poor fit]"
8,Cc1ccc(C(=O)NCCSc2c(C)[nH]c3ccccc23)cc1[N+](=O)[O-],"inconclusive [activator, single point]"
9,CCOC(=O)c1cc2c(C)nn(-c3ccccc3)c2s1,"inconclusive [activator, single point]"
10,CCC(C)(C)n1nnnc1CN(Cc1cc2cc(OC)c(OC)cc2[nH]c1=O)C1CCCC1,"inconclusive [activator, partial curve, poor fit]"
11,Cc1cccc(NC(=O)Cn2cnc3c(oc4nc5c(cc43)COC(C)(C)C5)c2=O)c1,"inconclusive [activator, full curve, poor fit]"
12,Cc1snc(S(=O)(=O)/C(C#N)=N/Nc2cccc(C(F)(F)F)c2)c1C#N,"inconclusive [activator, partial curve]"
13,CCN1CCN(c2ccc([N+](=O)[O-])cc2C(=O)c2ccc(Cl)cc2)CC1,"inconclusive [activator, single point]"
14,CCOc1nc2cnccc2n(CC(=O)Nc2cccc(C)c2)c1=O,"inconclusive [activator, partial curve, poor fit]"
15,O=C(COC(=O)c1cccc(S(=O)(=O)N2CCN(c3ccccc3)CC2)c1)NCc1ccco1,inactive
16,O=C(CCc1nc2ccccc2c(=O)[nH]1)N1CCN(S(=O)(=O)c2ccccc2Br)CC1,"inconclusive [activator, single point]"
17,CC(C)(C)OC(=O)C[C@@H]1C/C=C\C[C@@H](CC(=O)N(CCO)Cc2ccccc2)C(=O)N[C@@H](c2ccccc2)COC1=O,"inconclusive [activator, full curve, poor fit]"
18,Cc1cc(C(=O)NNC(=O)c2ccccc2F)c2ccccc2n1,"inconclusive [activator, single point]"
19,CCOC(=O)CCC(NC(=O)CCCCCCCC(=O)NC(CCC(=O)OCC)C(=O)OCC)C(=O)OCC (stereo not drawn),inactive
20,O=C(Nc1ncc(Cc2ccccc2)s1)c1cccs1,"inconclusive [activator, single point]"
21,COc1ccc(S(=O)(=O)Nc2cccc3c2O[C@H](CN(C)Cc2ccc(Cl)c(Cl)c2)[C@@H](C)CN([C@H](C)CO)C3=O)cc1,"inconclusive [activator, single point]"
